Data on 29 molecules can be found in the antibiotic and cytotoxicity screens of Wong et al. (2023).

Molecules are shown by their SMILES. Some of the results follow.

The first experiment has as its system HSkMC (human skeletal muscle cells). As to the kind of experiment: cytotoxicity call (relative viability < 0.9). The conditions noted are these: 10 µM.
Take `COCC#Cc1ccc2c(c1)O[C@H](CN(C)C(=O)CN(C)C)[C@H](C)CN([C@H](C)CO)S2(=O)=O`: the cytotoxicity call was “inactive”.
The same measure, in the same setting: in the case of `COCC#Cc1cnc2c(c1)C(=O)N([C@@H](C)CO)C[C@@H](C)[C@@H](CN(C)C(=O)c1ccc3c(c1)OCO3)O2` it was “inactive”.
Still for that read-out and setting: in the case of `C[C@H]1CN([C@@H](C)CO)C(=O)Cc2cc(NC(=O)CCCCCC(=O)Nc3ccccc3N)ccc2O[C@@H]1CN(C)S(C)(=O)=O` it was “inactive”; in that of `COc1ccc(NC(=O)N(C)C[C@H]2OCCCC[C@@H](C)Oc3ccc(NC(=O)C4CCCCC4)cc3C(=O)N([C@@H](C)CO)C[C@H]2C)cc1`, “inactive”; in that of `C[C@@H]1CN([C@@H](C)CO)C(=O)c2cc(NC(=O)Nc3ccc(C(F)(F)F)cc3)ccc2O[C@@H]1CN(C)CC1CCCCC1`, “active”.
Still for that read-out and setting: for `COc1ccccc1S(=O)(=O)N[C@@H]1CC[C@H](CCNC(=O)C2CC2)O[C@H]1CO` the value was “inactive”.
As for `C[C@@H]1CN([C@H](C)CO)C(=O)c2cc(NS(=O)(=O)c3ccc(Cl)cc3)ccc2O[C@H]1CN(C)Cc1ccc(C(=O)Nc2ccccc2N)cc1`, the cytotoxicity call is “inactive”.
Same read-out and setting: for `COc1ccc(OCCN2CCC(C(=O)N[C@@H](c3ccc(F)cc3)c3ccc4ccccc4n3)CC2)cc1` the value was “inactive”; for `NS(=O)(=O)c1ncn(Cc2ccccc2)n1`, “inactive”.
`Cc1noc(C)c1NC(=O)Nc1ccc2c(c1)C(=O)N([C@@H](C)CO)C[C@H](C)[C@H](CN(C)S(=O)(=O)c1cccs1)OCCCC[C@H](C)O2`: the cytotoxicity call was “inactive”.

Another experiment deals with HepG2. As to the kind of experiment: cytotoxicity call (relative viability < 0.9). The conditions noted are these: 10 µM.
`O=C1[C@@H]2[C@H](O)CS[C@@H]2C(=O)N1c1ccccc1`: the cytotoxicity call was “inactive”.
On the same count and under the same terms, in the case of `C[C@H]1CN([C@@H](C)CO)C(=O)c2cc(NC(=O)Nc3cccc4ccccc34)ccc2O[C@H]1CN(C)Cc1ccc2c(c1)OCO2` it was “inactive”; in that of `C[C@@H]1CN([C@H](C)CO)C(=O)c2cc(NC(=O)c3ccccc3)ccc2O[C@@H](C)CCCCO[C@@H]1CN(C)C(=O)C1CCCCC1`, “inactive”; in that of `O=C(C[C@@H]1C[C@H]2c3cc(NC(=O)NC4CCCC4)ccc3O[C@H]2[C@@H](CO)O1)NCc1ccc(-c2ccccc2)cc1`, “inactive”.
Still for that read-out and setting: in the case of `C[C@H]1CCCCO[C@H](CN(C)C(=O)CCCN(C)C)[C@@H](C)CN([C@@H](C)CO)C(=O)c2cc(NC(=O)Nc3cccc4ccccc34)ccc2O1` it was “inactive”; in that of `O=C(O)c1cc2c([nH]c1=O)CCC[C@@H]2O`, “inactive”; in that of `C[C@@H]1CCCCO[C@H](CN(C)Cc2ccc(C(F)(F)F)cc2)[C@H](C)CN([C@H](C)CO)C(=O)c2cc(NC(=O)Nc3cccc4ccccc34)ccc2O1`, “inactive”.
On the same count and under the same terms, in the case of `O=C(C[C@@H]1CC=CC[C@H](NC(=O)OCC2c3ccccc3-c3ccccc32)C(=O)OC[C@H](Cc2ccccc2)NC1=O)N[C@H](CO)Cc1ccccc1` it was “inactive”; in that of `C[C@@H]1CN([C@H](C)CO)C(=O)c2cc(NC(=O)Cn3cnnn3)ccc2O[C@H]1CN(C)S(=O)(=O)c1ccc(Cl)cc1`, “inactive”.
Consider `C[C@@H]1CCCCO[C@@H](CN(C)C(=O)Nc2ccc(F)cc2)[C@H](C)CN([C@@H](C)CO)C(=O)c2cc(NC(=O)Nc3cccc4ccccc34)ccc2O1`, for which the cytotoxicity call is “inactive”.
Take `C[C@@H]1CN([C@@H](C)CO)C(=O)CCCn2nncc2CO[C@@H]1CN(C)Cc1cccc2c1OCCCO2`: the cytotoxicity call is “inactive”.
With `CS(=O)(=O)Nc1ccc2c(c1)[C@H]1C[C@H](CC(=O)NCC3CC3)O[C@@H](CO)[C@H]1O2`, the cytotoxicity call was “inactive”.
On the same count and under the same terms, in the case of `CO[C@H]1O[C@@H](COC(C)=O)[C@@H](OC(C)=O)C(C#N)(C#N)[C@@H]1OC(C)=O` it was “inactive”; in that of `CC(C)NC(=O)Nc1cccc2c1O[C@@H](CN(C)Cc1ccc3c(c1)OCO3)[C@H](C)CN([C@H](C)CO)C2=O`, “inactive”; in that of `COCC(=O)Nc1ccc2c(c1)OC[C@@H](C)N(Cc1ccccc1OC)C[C@H](C)[C@@H](OC)CN(C)C2=O`, “inactive”.
Take `C=CC[C@@H](CC(=O)N(CCO)Cc1ccccc1)C(=O)NCCOC(=O)[C@H](CC=C)CC(=O)OC(C)(C)C`: the cytotoxicity call is “inactive”.
Still for that read-out and setting: in the case of `CC(C)NC(=O)Nc1ccc2c(c1)C(=O)N([C@H](C)CO)C[C@@H](C)[C@H](CN(C)C(=O)NC1CCCCC1)O2` it was “inactive”; in that of `C[C@@H]1CN([C@@H](C)CO)C(=O)c2cc(NC(=O)C3CCCCC3)ccc2O[C@@H](C)CCCCO[C@@H]1CN(C)S(=O)(=O)c1ccc(F)cc1`, “inactive”; in that of `COc1ccc(S(=O)(=O)Nc2ccc3c(c2)C(=O)N([C@H](C)CO)C[C@@H](C)[C@H](CN(C)C(=O)Nc2cccc4ccccc24)O3)cc1`, “inactive”.
